# According to PubChem BioAssay AID588342 (National Center for Advancing Translational Sciences (NCATS), 2011):
# Among all 360,000 compounds or so, about 25,000 (6.9%) were called active. This list was built around the results that the source calls inconclusive (neither active nor inactive); the mix of calls is not that of the screen. Calls follow the shape of the dose curve; as a rule, active = well fitted inhibition curve with a large enough effect; inconclusive = small, poorly fitted or top-dose-only effect; inactive = flat fitted curve, though single readings scatter. A potency beside an inconclusive call is a rough fit, not a confirmed value.
# Biological target: Luciferin 4-monooxygenase (Photinus pyralis) (UniProt P08659)
# Chain of UniProt P08659 (P08659 whole entry, looked up): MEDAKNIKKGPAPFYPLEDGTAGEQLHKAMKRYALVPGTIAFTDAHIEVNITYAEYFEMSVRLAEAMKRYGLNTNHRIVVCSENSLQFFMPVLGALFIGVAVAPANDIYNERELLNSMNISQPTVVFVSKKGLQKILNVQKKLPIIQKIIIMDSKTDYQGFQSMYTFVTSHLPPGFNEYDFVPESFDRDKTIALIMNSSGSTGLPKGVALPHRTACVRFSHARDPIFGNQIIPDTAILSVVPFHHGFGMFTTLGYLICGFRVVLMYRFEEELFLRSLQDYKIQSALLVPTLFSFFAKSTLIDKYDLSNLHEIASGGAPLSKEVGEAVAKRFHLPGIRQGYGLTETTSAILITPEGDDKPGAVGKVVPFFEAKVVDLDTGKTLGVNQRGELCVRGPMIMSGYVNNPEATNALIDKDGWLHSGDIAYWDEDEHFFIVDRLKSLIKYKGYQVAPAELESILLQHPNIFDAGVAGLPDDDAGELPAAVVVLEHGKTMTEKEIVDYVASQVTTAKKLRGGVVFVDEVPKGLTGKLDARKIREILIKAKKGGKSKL
# Experiment: qHTS profiling assay for firefly luciferase inhibitor/activator using purifed enzyme and Km concentrations of substrates (counterscreen for miR-21 project); also: nearly all actives have a fitted effect of over 55% in size
# Conditions: purified FLuc, luminescence inhibition; series mostly up to 57.5 µM
# Method in brief: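 Purified P. pyralis luciferase (10nM final) with 10uM D-luciferin and 10uM ATP (Km levels) in 50mM Tris acetate pH 7.5, 10mM Mg acetate, 0.01% Tween-20, 0.05% BSA; qHTS 6-point titration, ~60 µM downward; luminescence read.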
# Potency is read from the fitted curve at half-maximal effect; tags tell the direction and shape of the fitted curve.
row,Compound,Potency
1,Cc1nc2ccccn2c1C(=O)NNS(=O)(=O)c1ccc(C(C)(C)C)cc1,"inconclusive: 37.9 µM [inhibitor, single point]"
2,COc1ccc(NC(=O)Nc2ccccc2C(=O)N2CCCC2)cc1,"inconclusive: 16.9 µM [inhibitor, partial curve, poor fit]"
3,Cc1ccc2nc(CN3CCN(C(=O)Nc4ccc(C)c(F)c4)CC3)oc2c1,"inconclusive: 37.9 µM [inhibitor, partial curve, poor fit]"
4,NC(=O)c1sc2nc(-c3cccs3)ccc2c1N,active: 9.53 µM
5,CN(C)[C@@H]1C(=O)C(C(=O)NCN2CCCC2)=C(O)[C@@]2(O)C(=O)C3=C(O)c4c(O)cccc4[C@@](C)(O)C3CC12 (some centres undefined),"inconclusive: 37.9 µM [inhibitor, partial curve, poor fit]"
6,Cc1ccc(S(=O)(=O)N2CCN(C(=O)CN3C(=O)c4ccc([N+](=O)[O-])cc4C3=O)CC2)cc1C,inactive
7,Cc1cc(=O)[nH]c(Nc2ccc(N(C)C)cc2)n1,"inconclusive: 37.9 µM [inhibitor, partial curve, poor fit]"
8,Cc1cc(NC(=O)c2cc3ncc(Br)cn3n2)no1,"inconclusive: 15.1 µM [inhibitor, partial curve, poor fit]"
9,CCn1c(NC)cc(=O)n(C)c1=O,inactive
10,CCN(CC)C(=O)c1ccc(CS(=O)(=O)Cc2ccccc2)cc1,inactive
11,[O-]/[N+](=C\c1ccc(OC(F)F)cc1)c1ccccc1,active: 15.1 µM
12,CNC(=S)N1CCN(c2nc(-c3cccc(OC)c3)cs2)CC1,"inconclusive: 19 µM [inhibitor, partial curve]"
13,Cc1[nH]c2ccccc2c1C(C#N)(C#N)C1C(=O)c2ccccc2C1=O,"inconclusive: 13.5 µM [inhibitor, partial curve, poor fit]"
14,CC(C)NC(=O)CSc1nc(-c2ccccc2)cs1,active: 19 µM
15,CCc1ccc(Oc2ncnc(N)c2[N+](=O)[O-])cc1,inactive
16,CCCC(=O)Nc1sc(C)c(-c2ccc(OC)cc2)c1C#N,inactive
17,COc1cc(C(=O)NCCc2csc3nc(-c4ccccc4C)nn23)cc(OC)c1OC,inactive
18,O=C(Oc1ccc2c(c1)OCO2)c1ccc(F)cc1Cl,active: 2.69 µM
19,COc1cc(C(=O)Nc2c(C(=O)O)[nH]c3ccc(C)cc23)cc(OC)c1OC,"inconclusive: 23.9 µM [inhibitor, partial curve, poor fit]"
20,O=C(N/N=C/C=N/NC(=O)c1ccco1)c1ccco1,inactive
21,Cc1cc(C)nc(NC(=O)/C=C/c2ccccc2Cl)c1,active: 3.01 µM
22,c1ccc(Cn2nnc3c(N4CCN(Cc5ccc6c(c5)OCO6)CC4)ncnc32)cc1,inactive
23,CN(C)CCNC(=O)c1cc2sc3ccccc3c2s1,"inconclusive: 26.9 µM [inhibitor, single point]"
24,CN(C)/C=N/c1ncc(C(=O)c2ccccc2)s1,active: 15.1 µM
25,Cc1ccc(Nc2nc(-c3ccccc3)cs2)nc1,active: 0.379 µM

row,Compound,Potency
1,Cc1ccc2c(Cl)c(C(=O)NCC(c3ccco3)N3CCCC3)sc2c1 (centres undefined),"inconclusive: 19 µM [inhibitor, partial curve]"
2,C=CCNC(=S)NNC(=O)c1ccc(=O)n(Cc2ccc(Cl)cc2Cl)c1,"inconclusive: 21.3 µM [inhibitor, single point]"
3,COc1ccc(S(=O)(=O)N2CCN(C(=O)C3CC3)CC2)cc1,inactive
4,CCCCNC(=O)c1onc(CSc2ccc(C)c(C)c2)c1C(=O)O,"inconclusive: 21.3 µM [inhibitor, single point]"
5,COc1ccc(NC(=O)c2ccc3c(SCC(=O)O)c4c(nc3c2)CCC4)c(OC)c1,"inconclusive: 37.9 µM [inhibitor, partial curve, poor fit]"
6,N#Cc1ccc(NC(=O)COC(=O)CSc2nnc(-c3ccc(Cl)cc3)o2)cc1,"inconclusive: 30.1 µM [inhibitor, partial curve, poor fit]"
7,COc1ccc(-c2nc(SCc3cc(=O)c4cc(C)ccc4[nH]3)n[nH]2)cc1,"inconclusive: 30.1 µM [inhibitor, partial curve, poor fit]"
8,COc1ccccc1/C=C\C(=O)NCC(=O)N/N=C(\C)Cc1ccccc1,inactive
9,CC1Cc2cc(S(=O)(=O)N3CCN(c4ccccc4F)CC3)ccc2N1C(=O)C1CC1 (centres undefined),inactive
10,COc1ccc(-c2nsc(NC(=O)C(C)Oc3ccc(Cl)c(C)c3)n2)cc1 (centres undefined),"inconclusive: 10.7 µM [inhibitor, partial curve]"
11,O=C(NCCc1ccc2c(c1)OCCO2)c1cccc(F)c1,"inconclusive: 19 µM [inhibitor, partial curve]"
12,CC(=O)N(C)c1nc(N)n(-c2ccccc2)n1,"inconclusive: 0.0067 µM [inhibitor, partial curve, poor fit]"
13,O=C(NCc1ccco1)c1nc2ccccc2s1,"inconclusive: 23.9 µM [inhibitor, single point]"
14,O=C(c1ccc(COc2ccccc2Br)o1)N1N=C(C(F)F)CC1(O)C(F)F (centres undefined),inactive
15,CCn1cc(C(=O)NCc2ccc3c(c2)OCO3)c(=O)c2cc(F)c(N3CCN(C(=O)c4ccco4)CC3)cc21,inactive
16,COc1cccc(/C=N/NC(=O)C(=O)NCc2ccco2)c1O,"inconclusive: 30.1 µM [inhibitor, single point]"
17,O=C(Nc1cccc(N2C(=O)C3C4C=CC(C4)C3C2=O)c1)c1cccs1 (centres undefined),"inconclusive: 37.9 µM [inhibitor, partial curve, poor fit]"
18,O=C1OC(c2ccco2)=N/C1=C\c1ccc(-c2cccc(C(F)(F)F)c2)o1,inactive
19,Cc1nc2c(-c3ccc(Cl)cc3)cnn2c(N)c1-c1ccc(F)cc1,active: 1.69 µM
20,CC1(C)OC(=O)C(=NNc2ccc(C(=O)O)cc2)C(=O)O1,inactive
21,COc1ccc(Nc2nc3c(S(=O)(=O)c4ccccc4)nnn3c3ccsc23)cc1OC,inactive
22,COc1ccc(OCC(=O)Nc2ccc(C(=O)Nc3ccccc3C(=O)O)cc2)cc1,"inconclusive: 37.9 µM [inhibitor, single point]"
23,COc1ccc(N2C(=O)C(Cl)=C(Oc3cccc(OC)c3)C2=O)cc1,"inconclusive: 23.9 µM [inhibitor, partial curve]"
24,O=[N+]([O-])c1nn(-c2ccc(Cl)cc2)n(O)c1=NCc1ccccc1Cl,"inconclusive: 30.1 µM [inhibitor, partial curve, poor fit]"
25,COc1ccc(CCNC(=O)c2cn(C)c3ccc(S(=O)(=O)N(C)C4CCCCC4)cc3c2=O)cc1OC,inactive

row,Compound,Potency
1,CC1(C)CC(=O)c2sc(N3CCCCC3)nc2C1,"inconclusive: 33.8 µM [inhibitor, single point]"
2,C/C(CC(=O)Nc1ccc(Cl)c(Cl)c1)=N\NC(=O)C(=O)N1CCCCC1,inactive
3,O=C(NCCc1ccccc1)c1ccccc1F,"inconclusive: 8.49 µM [inhibitor, partial curve, poor fit]"
4,C/C(=N\Nc1nncc2ccccc12)c1ccc(Cl)c([N+](=O)[O-])c1,"inconclusive: 26.9 µM [inhibitor, partial curve, poor fit]"
5,Cc1cc(C(=O)N/N=C/c2ccc([N+](=O)[O-])o2)c(C)o1,inactive
6,COc1cccc(-n2c(C)nn(CCOc3ccccc3)c2=O)c1,inactive
7,O=C(CSc1ccc(-c2cccs2)nn1)Nc1ccccc1F,"inconclusive: 21.3 µM [inhibitor, single point]"
8,COc1ccc(NC(=O)Cn2c(=O)n(-c3ccc(C)cc3)c(=O)c3c2cnn3C)cc1,inactive
9,COc1ccc(Cn2c(=O)[nH]c3cc(C(=O)N4CCN(c5ccccc5OC)CC4)ccc3c2=O)cc1,inactive
10,O=c1oc(-c2cccc([N+](=O)[O-])c2)nc2ccccc12,"inconclusive: 23.9 µM [inhibitor, partial curve, poor fit]"
11,Cc1cc(N2CCOCC2)n2ncc(-c3ccc(Cl)cc3)c2n1,active: 0.601 µM
12,CCOC(=O)c1c(C)[nH]c(C)c1S(=O)(=O)N(C)CC(=O)Nc1ccc(C)c(N(C)C)c1,inactive
13,COc1ccc(C)cc1NC(=O)c1ccc(=O)n(Cc2ccccc2)c1,inactive
14,COC(=O)c1ccc(NC(=O)CCC(=O)c2ccc(F)cc2)cc1,inactive
15,N#C/C(=C\c1ccc(OCC(N)=O)cc1)C(=O)NC1CC1,"inconclusive: 30.1 µM [inhibitor, partial curve, poor fit]"
16,O=C(Nc1cccnc1)c1ccccc1-c1ccccc1,inactive
17,CCOc1ccc(NC(=O)c2cccc(NC3=NC4CS(=O)(=O)CC4S3)c2)cc1 (centres undefined),"inconclusive: 21.3 µM [inhibitor, single point]"
18,O=C(O)CCCc1nc2ccccc2s1,"inconclusive: 23.9 µM [inhibitor, partial curve, poor fit]"
19,CCNC(=O)COc1ccc(/C=C2\COc3ccccc3C2=O)cc1OC,"inconclusive: 23.9 µM [inhibitor, single point]"
20,CCOc1ccc(C(=O)Nn2cnnc2)cc1,inactive
21,O=C(Nc1ccc(F)cc1F)c1csc(-c2ccncc2)n1,"inconclusive: 23.9 µM [inhibitor, partial curve, poor fit]"
22,Cc1ccc(S(=O)(=O)N2CCN(C(=S)NCC3CCCO3)CC2)cc1 (centres undefined),inactive
23,Cc1cc(C(=O)OCC(=O)c2ccccc2)c2ccccc2n1,"inconclusive: 16.9 µM [inhibitor, partial curve]"
24,Cc1cc(C(=O)CSc2nc3ccccc3n2C)c(C)n1C,"inconclusive: 23.9 µM [inhibitor, single point]"
